Paper PMC4336329 (PLoS ONE, 2015)
The whole screen tested about 310,000 compounds, of which about 14,000 (4.5%) showed an effect of 50% or more. The effect is printed as a negative number. The list shows a part of the results.

Biological target: human ether-à-go-go-related gene (hERG) potassium channel (human, UniProt Q12809)
Assay: primary screen, population patch clamp on CHO cells stably expressing hERG
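Also: peak tail current of the secondary pulse compared with the same well before compound.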

human ether-à-go-go-related gene (hERG) potassium channel, sequence (Q12809 whole entry, looked up): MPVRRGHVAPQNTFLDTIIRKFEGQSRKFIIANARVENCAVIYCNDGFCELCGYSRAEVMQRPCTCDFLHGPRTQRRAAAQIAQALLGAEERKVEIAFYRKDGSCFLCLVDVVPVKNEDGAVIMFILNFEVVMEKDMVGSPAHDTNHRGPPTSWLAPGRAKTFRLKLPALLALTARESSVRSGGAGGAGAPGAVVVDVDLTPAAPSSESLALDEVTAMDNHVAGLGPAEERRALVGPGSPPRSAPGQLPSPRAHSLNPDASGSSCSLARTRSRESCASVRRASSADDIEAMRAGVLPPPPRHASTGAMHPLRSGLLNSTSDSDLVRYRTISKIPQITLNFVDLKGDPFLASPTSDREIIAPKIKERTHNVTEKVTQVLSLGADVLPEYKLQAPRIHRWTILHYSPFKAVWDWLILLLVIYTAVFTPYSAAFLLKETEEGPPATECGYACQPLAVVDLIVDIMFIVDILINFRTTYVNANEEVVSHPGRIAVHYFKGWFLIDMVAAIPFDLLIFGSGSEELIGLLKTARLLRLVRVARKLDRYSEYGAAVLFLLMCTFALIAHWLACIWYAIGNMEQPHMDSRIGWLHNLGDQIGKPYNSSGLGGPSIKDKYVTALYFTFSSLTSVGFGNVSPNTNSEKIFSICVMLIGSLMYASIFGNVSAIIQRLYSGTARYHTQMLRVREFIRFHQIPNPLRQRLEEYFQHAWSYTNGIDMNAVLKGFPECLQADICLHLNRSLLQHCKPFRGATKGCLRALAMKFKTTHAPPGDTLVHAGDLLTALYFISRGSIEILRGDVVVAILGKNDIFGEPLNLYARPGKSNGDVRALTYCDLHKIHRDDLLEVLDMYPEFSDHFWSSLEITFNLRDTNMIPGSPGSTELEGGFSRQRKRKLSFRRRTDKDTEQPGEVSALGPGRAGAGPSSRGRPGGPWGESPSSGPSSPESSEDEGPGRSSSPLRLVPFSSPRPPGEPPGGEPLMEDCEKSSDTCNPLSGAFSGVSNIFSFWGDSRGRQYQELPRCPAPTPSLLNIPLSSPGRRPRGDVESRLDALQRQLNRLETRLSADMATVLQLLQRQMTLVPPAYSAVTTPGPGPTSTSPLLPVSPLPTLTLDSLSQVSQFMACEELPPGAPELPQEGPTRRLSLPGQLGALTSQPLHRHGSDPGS

Row | SMILES | hERG current change (%, negative = inhibition) at 10uM [%]
1 | COc1ccc(-c2nnn(CC(=O)N3CCN(c4ccccc4OC)CC3)n2)cc1 | 0.349
2 | Cl.Oc1ccc(Nc2ncnc3c2oc2ccccc23)cc1 | -4.8
3 | COc1cc2c(cc1OC)C(COc1ccc(F)cc1)NCC2 (stereo not shown) | -26.8
4 | O=C(Nc1ccc(N2CCOCC2)c2nonc12)C1CCCC1 | 3.34
5 | CC(=O)Nc1sc2c(c1C#N)CCC(C)C2 (stereo not shown) | -3.48
6 | Cc1ccc(C)c(N2CCN(C(=O)Cc3cn(C)c4ccccc34)CC2)c1 | 5.99
7 | COc1ccc(CCNC(=O)c2cc([N+](=O)[O-])cc([N+](=O)[O-])c2)cc1OC | 12
8 | CCCn1c(O)c(N=NC(=O)c2ccco2)c2ccccc21 | -1.01
9 | COc1cccc(C2NC(=O)CCC2[N+](=O)[O-])c1OC (stereo not shown) | 14.4
10 | Cc1nn2c(=O)cc(CSc3ccccc3NC(=O)c3ccccc3F)nc2s1 | -3.29
11 | CCOC(=O)C(=O)NN=C(c1ccccc1)c1ccccc1 | 9.79
12 | O=C(O)CSCC(=O)Nc1ccc(Br)c(C(F)(F)F)c1 | 15
13 | COc1ccccc1NC(=S)NC(=O)CCCOc1ccc(Cl)cc1Cl | 18.2
14 | O=C(COc1ccccc1)N1CCN(Cc2c[nH]c3ccccc23)CC1 | -47.4
15 | CC(C)(C)c1ccc(C(=O)N2CCCN(C(=O)c3ccc(C(C)(C)C)cc3)CC2)cc1 | -10.2
16 | COc1ccc(OC)c(S(=O)(=O)Nc2ccc3oc(C)c(C(C)=O)c3c2)c1 | -0.667
17 | CC(=O)Oc1ccc(N(C(C)=O)S(=O)(=O)c2ccc(C)c([N+](=O)[O-])c2)cc1 | 11.6
18 | COc1ccc(OCC(O)CN2CCN(c3ncccn3)CC2)cc1.Cl (stereo not shown) | -17.8
19 | O=c1[nH]cccc1-c1nc2ccccc2n1Cc1ccccc1F | 4.82
20 | CN1C(=O)C(C)(C)c2cc(S(=O)(=O)N3CCCCCC3)ccc21 | 2.44
21 | Cc1ccc(Sc2ccc(C(=O)NC(C)C)cc2[N+](=O)[O-])cc1 | 7.05
22 | O=C(CS(=O)(=O)c1ccccc1)N1CCN(c2ccccc2)CC1 | 2.36

Row | SMILES | hERG current change (%, negative = inhibition) at 10uM [%]
23 | Cc1ccccc1NC(=O)C1Cc2ccccc2CN1C(=O)c1ccco1 (stereo not shown) | -2.82
24 | COc1cccc(CN(C)C(=O)CNC(=O)c2sc3ccccc3c2Cl)c1OC | -11.1
25 | COc1ccc(N=Cc2[nH]c3ccccc3c2O)cc1 | 13.2
26 | CCOc1cc(C2C(C(=O)OC)=C(C)N=C3SCCC(=O)N32)ccc1OC(C)=O (stereo not shown) | 10.3
27 | NC(N)=N/N=C/c1cc([N+](=O)[O-])ccc1O | -4.41
28 | CC(=O)c1cccc(NC(=O)N2CCCC2C(=O)Nc2ccccc2C)c1 (stereo not shown) | -2.6
29 | Cc1cc(C(=O)NNC(=O)/C=C/c2ccccc2Cl)c(C)o1 | 24.9
30 | CN(C)c1nc(SCC(=O)Nc2ccccc2)nc(N2CCOCC2)n1 | 12.5
31 | O=C(NC1CCCC1)C(=O)N(Cc1cccnc1)C(C(=O)NC1CCCC1)c1ccco1 (stereo not shown) | 19.6
32 | Cc1ccc(CCN2CC(C(=O)NCc3cccnc3)CC2=O)cc1 (stereo not shown) | -1.22
33 | COCC(=O)N1CCC(Oc2ccc(C(=O)N(C)C3CCCCC3)cc2)CC1 | 15.7
34 | O=C(CN1CCN(Cc2ccccc2)CC1)Nc1ccccc1 | -26.9
35 | C#CCn1cc(/C=N/NC(=O)c2cc3ccccc3o2)c2ccccc21 | -0.0638
36 | COc1cccc(NC(=O)C2C3C=CC4(O3)C2C(=O)N(CCCN2CCCC(C)C2)C4C(=O)NC2CCCCC2C)c1 (stereo not shown) | 9.9
37 | COc1cc(C2c3[nH]c4ccccc4c3C[C@@H]3C(=O)N(Cc4ccco4)CC(=O)N23)cc(OC)c1OC (stereo partly shown) | -13.9
38 | COc1ccc(NC(=O)N2CCn3c2nc2ccccc23)cc1 | -11.6
39 | Cc1cc(C(=O)COC(=O)CCCN2C(=O)c3ccccc3C2=O)c(C)n1C | -11.6
40 | COc1ccc(-c2n[nH]c(=S)n2/N=C/C=C\c2ccccc2OC)cc1 | 15.4
41 | Cc1c(C(=O)/C=C/N(C)C)nnn1-c1ccc(Cl)c(Cl)c1 | -10.4
42 | Cn1c(=O)[nH]c(=O)c2c1nc(NCCCn1ccnc1)n2Cc1cccc(Br)c1 | -6.39
43 | COc1cccc(NS(=O)(=O)c2cc(C)sc2C)c1 | 2.94
44 | O=C(c1cn(Cc2ccccc2)nc1-c1cccnc1)N1CCN(Cc2c(F)cccc2Cl)CC1 | -4.33

Row | SMILES | hERG current change (%, negative = inhibition) at 10uM [%]
45 | Cc1occc1-c1n[nH]c(=S)n1-c1ccccc1 | 6.26
46 | C[C@H](NS(=O)(=O)c1ccc(Cl)cc1)C(=O)OCC(=O)NC(=O)Nc1ccc2c(c1)OCCO2 | -0.0565
47 | CCc1cccc2c(=O)c(C(=O)N3CCOCC3)c[nH]c12 | -1.15
48 | Cc1cc(=O)n(-c2ccccc2)n1-c1ccccc1 | -3.77
49 | CCCCCCCSc1cc(OC)c(CCN(C)C)cc1OC.O=C(O)/C=C\C(=O)O | -64.3
50 | CC1=CC(C)(C)n2c(O)c(N=NC(N)=S)c3cccc1c32 | -2.06
51 | OCC1(CC2CCCCO2)CCN(C/C=C/c2ccccc2)CC1 (stereo not shown) | -46
52 | O=C(CCCCCNC(=O)c1ccccc1)N/N=C/c1ccc(O)cc1O | 2.79
53 | O=C1C2C3C=CC(CC3)C2C(=O)N1c1ccc2c(c1)OCO2 (stereo not shown) | 13.6
54 | COC(=O)/C(=C\C(=O)c1ccc([N+](=O)[O-])cc1)Nc1ccc(OC)cc1 | 6.44
55 | CCCCCOc1ccc(Br)cc1/C(C)=N/NC1=NCCN1 | -70.1
56 | COc1cc(NC(=O)C2C3C=CC(C3)C2C(=O)O)ccc1NC(=O)c1ccccc1 (stereo not shown) | 13.7
57 | CCN1CCN(c2nc3ccccn3c(=O)c2C=O)CC1 | -7.28
58 | O=C(Nc1cccc2ccccc12)N1CCN(Cc2ccccc2)CC1 | -4.23
59 | CN1CCC2(CC1)C1CN(C)CC=C1C(C#N)=C(N)C2(C#N)C#N.O.[OH-] (stereo not shown) | 14.1
60 | COC(=O)/C=C1/S/C(=N/N=C/c2ccco2)NC1=O | 18.8
61 | Cc1ccc(Cl)cc1NC(=O)C1CC(=O)N(C(C)C)C1 (stereo not shown) | 16
62 | N#CCCCCn1ccc(NC(=O)c2ccc(Cl)cc2O)n1 | 12.6
63 | Br.COc1ccc(C(=O)Cn2c(NCCO)nc3ccccc32)cc1 | 6.25
64 | Cc1nn(-c2ccccc2)c(Cl)c1/C=N/NC(=O)c1cccc(S(=O)(=O)N2CCCC2)c1 | 16.1
65 | O=C(c1ccccc1)N1CCN(c2ccc([N+](=O)[O-])c(NCc3ccco3)c2)CC1 | -47.2
66 | CCCCOC(=O)Nc1nnc(/C=C/c2ccc(OC)cc2)s1 | 5.8

Row | SMILES | hERG current change (%, negative = inhibition) at 10uM [%]
67 | Cc1ccc(N(C)S(=O)(=O)c2cccc(C(=O)NCCCN3CCCC3=O)c2)cc1 | -13.3
68 | Cc1ccc(CNC(=O)c2ccccc2-n2cnnn2)cc1 | 9.73
69 | O=C1CCC(C(=O)N2CCC(CO)(Cc3ccc(Cl)cc3)CC2)=NN1 | -32.5
70 | Cc1cc(C)nc(SCCCNCc2ccc(Br)cc2)n1.Cl | -36.1
71 | Cc1ccc(S(=O)(=O)NCC2CCC(C(=O)NCc3cccs3)CC2)cc1 (stereo not shown) | 13.5
72 | Cc1c(OCc2ccccc2)cccc1OCc1ccccc1 | 11.9
73 | CCCn1c(SCC(=O)Nc2ccc(NC(C)=O)cc2)nc2c1c(=O)n(C)c(=O)n2C | -4.13
74 | COC(=O)c1c(NC(=O)c2cccnc2)sc(C)c1C | -22.2
75 | CN(CCO)c1ncnc2c1sc1nc(N3CCOCC3)c3c(c12)CCC3 | -55.2
76 | COC(=O)C1(CO)NC(c2ccc(C)cc2)C2C(=O)N(c3ccccc3)C(=O)C21 (stereo not shown) | 4.66
77 | COc1ccc(CC(=O)OCC(=O)N2N=C(c3ccccc3)CC2c2ccc(OC)cc2)cc1 (stereo not shown) | 9.45
78 | CN(C)CCCN=Cc1c(O)n(Cc2ccc3c(c2)OCO3)c(=O)c2ccccc12 | -49.1
79 | Cc1ccc(NC2=C(Cl)C(=O)N(C3CCCCC3)C2=O)cc1 | 16.2
80 | Cc1cc(NC(=O)CN2CCCC(C)C2)no1.O=C(O)C(=O)O (stereo not shown) | 10.7
81 | O=C(Nc1ccc(N2CCOCC2)cc1)c1ccc(Br)o1 | -1.81
82 | COc1ccc(Cl)cc1NC(=O)CN(C)CC(=O)Nc1ccccc1-c1ccccc1 | -1.82
83 | O=C(O)c1ccc(S(=O)(=O)N2CCOCC2)o1 | 14.8
84 | CO/N=C/c1ccc(Sc2ccccc2N)c([N+](=O)[O-])c1 | -0.11
85 | COc1ccc(C)cc1NC(=O)c1ccc2c(=O)n3c(nc2c1)CCCCC3 | -42.5
86 | O=C(c1ccc(-c2ccccc2)cc1)c1ccc([N+](=O)[O-])cc1 | 6.9
87 | CNc1ccc(S(=O)(=O)NCC(=O)NCCCc2ccccc2)cc1[N+](=O)[O-] | -9.64
88 | CCCc1cc(C(=O)Nc2sc(C(C)=O)c(C)c2C(=O)OCC)no1 | -6.72
